The campaign covered roughly 310,000 compounds. About 2,200 (0.71%) showed an effect of 50% or more. The effect is printed as a negative number. The list shows a part of the results.
Each compound was assayed against human ether-à-go-go-related gene (hERG) potassium channel (human, UniProt Q12809) (assay: primary screen, population patch clamp on CHO cells stably expressing hERG).
Sequence of human ether-à-go-go-related gene (hERG) potassium channel (Q12809 whole entry, looked up): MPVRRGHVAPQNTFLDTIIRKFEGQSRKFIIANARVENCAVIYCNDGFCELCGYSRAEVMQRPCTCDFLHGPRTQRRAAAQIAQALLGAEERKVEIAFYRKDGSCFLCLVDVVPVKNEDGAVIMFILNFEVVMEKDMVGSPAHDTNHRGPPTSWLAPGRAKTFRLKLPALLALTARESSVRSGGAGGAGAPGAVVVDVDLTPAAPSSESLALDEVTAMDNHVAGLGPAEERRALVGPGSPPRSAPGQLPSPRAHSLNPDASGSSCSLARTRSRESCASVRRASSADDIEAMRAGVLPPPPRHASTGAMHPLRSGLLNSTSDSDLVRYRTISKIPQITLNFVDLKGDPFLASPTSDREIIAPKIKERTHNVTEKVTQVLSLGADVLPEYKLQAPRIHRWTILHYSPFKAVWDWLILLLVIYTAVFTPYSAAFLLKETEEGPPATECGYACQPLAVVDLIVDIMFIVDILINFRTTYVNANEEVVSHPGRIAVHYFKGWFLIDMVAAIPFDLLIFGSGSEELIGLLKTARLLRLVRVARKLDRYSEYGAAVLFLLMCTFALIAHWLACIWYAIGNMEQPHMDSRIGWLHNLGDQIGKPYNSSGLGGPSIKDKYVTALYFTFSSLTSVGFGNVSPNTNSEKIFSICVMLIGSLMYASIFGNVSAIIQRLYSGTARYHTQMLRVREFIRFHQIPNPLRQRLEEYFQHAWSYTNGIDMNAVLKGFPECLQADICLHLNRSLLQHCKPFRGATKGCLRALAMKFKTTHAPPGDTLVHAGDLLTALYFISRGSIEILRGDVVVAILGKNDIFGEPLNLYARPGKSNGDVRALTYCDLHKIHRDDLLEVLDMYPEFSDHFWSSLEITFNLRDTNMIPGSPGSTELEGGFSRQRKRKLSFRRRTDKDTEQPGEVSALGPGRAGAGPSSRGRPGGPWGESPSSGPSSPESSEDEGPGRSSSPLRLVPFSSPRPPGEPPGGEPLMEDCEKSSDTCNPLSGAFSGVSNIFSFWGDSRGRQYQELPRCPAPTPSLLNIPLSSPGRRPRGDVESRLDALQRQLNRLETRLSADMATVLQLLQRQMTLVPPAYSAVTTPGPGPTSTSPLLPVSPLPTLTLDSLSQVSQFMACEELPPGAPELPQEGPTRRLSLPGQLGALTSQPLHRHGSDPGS
For `Cc1nc2ccc(C(=O)N3CCCC(CO)(Cc4ccc(F)cc4F)C3)cc2nc1C` (stereo not shown), the “hERG current change (%, negative = inhibition) at 1uM” value was 3.69%.
With `COC/C=C/C1=CC(=O)C[C@H](c2ccc3c(c2)OCO3)C1` the “hERG current change (%, negative = inhibition) at 1uM” value was 3.61%.
`CSc1nc(-c2ccc(Cl)cc2)nn1C(=O)c1ccccc1` was tested, and the “hERG current change (%, negative = inhibition) at 1uM” value was 1.81%.
With `O=C(N/C(=C/c1cccnc1)C(=O)N1CCCCCC1)c1ccccc1` the “hERG current change (%, negative = inhibition) at 1uM” value was 6.71%.
For `COc1ccc(C(=O)c2c(C)c3ccccc3n2CC(O)CNC(C)C)cc1.Cl` (stereo not shown), the “hERG current change (%, negative = inhibition) at 1uM” value was -0.594%.
`O=C(c1ccc(S(=O)(=O)NCC2CCCO2)cc1)N1CCN(c2ccccc2)CC1` (stereo not shown) was tested, and the “hERG current change (%, negative = inhibition) at 1uM” value was 9.22%.
With `COCCN1Cc2cccc(C(=O)Nc3cc(C)cc(C)c3)c2C1=O` the “hERG current change (%, negative = inhibition) at 1uM” value was 10.6%.
`Fc1ccc(CSc2ncnc3nc[nH]c23)cc1` was tested, and the “hERG current change (%, negative = inhibition) at 1uM” value was 13.1%.
`O=C(CC1SC(=NCC2CCCO2)NC1=O)Nc1cc([N+](=O)[O-])ccc1Cl` (stereo not shown) was tested, and the “hERG current change (%, negative = inhibition) at 1uM” value was -0.884%.
In the case of `COc1ccc(OC)c(C2CC(c3c(-c4ccccc4)c4cc(Cl)ccc4[nH]c3=O)=NN2S(C)(=O)=O)c1` (stereo not shown), the “hERG current change (%, negative = inhibition) at 1uM” value was 7.3%.
`CCOc1ccc2oc(C(=O)N3CC(C)OC(C)C3)c(C)c2c1` (stereo not shown) was tested, and the “hERG current change (%, negative = inhibition) at 1uM” value was 21.5%.
For `O=C(/C(=N\O)n1cncn1)c1ccc(Cl)cc1Cl`, the “hERG current change (%, negative = inhibition) at 1uM” value was 15.2%.
For `CN(Cc1ccccc1)C(=O)c1nc2ccccn2c1CNCCOc1cccnc1`, the “hERG current change (%, negative = inhibition) at 1uM” value was 4.94%.
For `COc1ccccc1N=C1SC(C(=O)Nc2cccc(Cl)c2Cl)C(N)=C1C(N)=O` (stereo not shown), the “hERG current change (%, negative = inhibition) at 1uM” value was 14.1%.
With `O=C(Nc1cccnc1)C1OCCc2ccccc21` (stereo not shown) the “hERG current change (%, negative = inhibition) at 1uM” value was 4.87%.
`O=C1NC(=O)C2C1C(c1cccs1)NN2Cc1ccccc1` (stereo not shown) was tested, and the “hERG current change (%, negative = inhibition) at 1uM” value was 13.7%.
With `Cc1nnc(N/N=C/c2ccccc2F)n1N` the “hERG current change (%, negative = inhibition) at 1uM” value was 12.7%.
With `CCOc1ccc(CNn2cnnc2)cc1` the “hERG current change (%, negative = inhibition) at 1uM” value was 3.03%.
In the case of `COC(=O)c1sccc1NC(=O)Nc1ccc(C(C)=O)cc1`, the “hERG current change (%, negative = inhibition) at 1uM” value was 13.2%.
With `CC(=O)c1sc(NC(=O)COc2ccccc2)nc1C` the “hERG current change (%, negative = inhibition) at 1uM” value was 1.38%.
In the case of `Cc1csc2nc(CNC(=O)C3CCCCC3)cn12`, the “hERG current change (%, negative = inhibition) at 1uM” value was 6.7%.
For `O=C(NC1CC1)C1=C[C@@H](C2CC2)C[C@@H](OCc2ccc(CO)cc2)O1`, the “hERG current change (%, negative = inhibition) at 1uM” value was 9.99%.
In the case of `C=CCn1c(SCC(=O)N2CCN(C(=O)c3ccco3)CC2)nc2sc(CC)cc2c1=O`, the “hERG current change (%, negative = inhibition) at 1uM” value was -85.6%.
For `Cc1ccc(C(=O)Nc2ccc(S(=O)(=O)NC3=NCCCCC3)cc2)cc1S(=O)(=O)N1CCOCC1`, the “hERG current change (%, negative = inhibition) at 1uM” value was 18.1%.
In the case of `N#CC1=C(N)n2c(s/c(=C\c3cccs3)c2=O)=C(C#N)C1c1cccs1` (stereo not shown), the “hERG current change (%, negative = inhibition) at 1uM” value was 6.45%.
With `COC(=O)C1=C(C)OC(N)=C(C#N)C1c1c(C)nn(C)c1C` (stereo not shown) the “hERG current change (%, negative = inhibition) at 1uM” value was 8.63%.
In the case of `CCOc1ccc(C(=O)Nc2ccc(-c3cc4ccccc4oc3=O)c(C)c2)cc1[N+](=O)[O-]`, the “hERG current change (%, negative = inhibition) at 1uM” value was 9.39%.
`COCCN1C(=O)C(O)=C(C(C)=O)C1c1ccc(OC)c(OC)c1` (stereo not shown) was tested, and the “hERG current change (%, negative = inhibition) at 1uM” value was 11.6%.
For `Cc1ccc(NC(=O)CN(C)S(=O)(=O)c2ccc3[nH]c(=O)oc3c2)c(C)c1`, the “hERG current change (%, negative = inhibition) at 1uM” value was -9.83%.
In the case of `Cc1ccccc1NC(=O)CSc1nc2c(c(=O)n(C)c(=O)n2C)n1C`, the “hERG current change (%, negative = inhibition) at 1uM” value was -0.914%.
In the case of `CN1c2ccsc2/C(=N/Nc2ccc(F)cc2)CS1(=O)=O`, the “hERG current change (%, negative = inhibition) at 1uM” value was 16.9%.
For `Cc1cccc(C(=O)NNC(=O)c2ccc(O)cc2)c1`, the “hERG current change (%, negative = inhibition) at 1uM” value was 0.387%.
With `COc1ccc(-c2cc(C(=O)NCCCn3ccnc3)no2)cc1OC` the “hERG current change (%, negative = inhibition) at 1uM” value was 14%.
In the case of `Cc1cccc(OCC(=O)Nc2ccc(S(=O)(=O)Nc3cc(C)nc(C)n3)cc2)c1`, the “hERG current change (%, negative = inhibition) at 1uM” value was 6.43%.
With `COC(=O)c1ccccc1NC(=O)N1CCN(c2ccccc2)CC1` the “hERG current change (%, negative = inhibition) at 1uM” value was 16.9%.
`Cc1cccc(-c2oc3ccc(-c4ccc5c(c4)OCO5)cc3c2-c2ccc(OC3CCCCO3)cc2)c1` (stereo not shown) was tested, and the “hERG current change (%, negative = inhibition) at 1uM” value was 14.1%.
`COc1ccc(NC(=O)Cc2c(Sc3ccccc3)c3ccccc3n2C)cc1` was tested, and the “hERG current change (%, negative = inhibition) at 1uM” value was 7.55%.
With `CCn1c(=O)c2c(nc3n2CCN3c2ccccc2)n(C)c1=O` the “hERG current change (%, negative = inhibition) at 1uM” value was 6.42%.
For `O=c1c2ccccc2c2ccccc2c(=O)n1-c1ccccc1`, the “hERG current change (%, negative = inhibition) at 1uM” value was 9.63%.
For `CN(C)c1ccc(CN(C(=O)c2cccs2)C2CCS(=O)(=O)C2)cc1` (stereo not shown), the “hERG current change (%, negative = inhibition) at 1uM” value was 11.5%.
`Cc1cccn2c(=O)c3cc(C(=O)NCc4cccnc4)c(=N)n(CC4CCCO4)c3nc12` (stereo not shown) was tested, and the “hERG current change (%, negative = inhibition) at 1uM” value was -78.5%.
For `CCOc1ccc(/C=N/N2C(=O)C(CC(=O)Nc3ccc(F)cc3F)SC2=NC)cc1OC` (stereo not shown), the “hERG current change (%, negative = inhibition) at 1uM” value was -1.14%.
For `NC(=O)CSc1nnc(Cc2csc(Nc3ccc(F)cc3)n2)n1Cc1ccccc1`, the “hERG current change (%, negative = inhibition) at 1uM” value was 11.5%.

From PMC4336329 (PLoS ONE, 2015)
